# This sample is rich in variants without activity.
# B1: tRNA (parent)
# chain: CUCUCGGUAGCCAAGUUGGUUUAAGGCGCAAGACUUUAAUUUAUCACUACGAAAUCUUGAGAUCGGGCGUUCGACUCGCCCCCGGGAGAUUUUUUCCUCGAGCAA
# Variants of: B1
# Assay: nonsense suppression (GFP-seq) (ratio to wild type); higher = more function; SUP4oc tRNA, yeast GFP reporter sort-seq
# In short: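 To measure nonsense suppression, tRNA variants from a library carrying ~3% random mutations were integrated into the yeast genome alongside RFP and a GFP ochre reporter under galactose control. Growth took place in raffinose/galactose medium supplemented with 80 mg/L adenine, followed by sorting into GFP/RFP bins and Illumina sequencing of each bin (phred ≥30). For each variant with ≥100 reads and ≥30 cells, the bin median GFP/RFP values were weighted by its estimated cell share per bin and referenced to the unmutated parent tRNA.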
row,Variant,nonsense suppression
1,CUCUCGGUAGCCAAGUUGGUUUAAGGCGCAAGACUUUAAUUUAUCACUACGAAAUCUUCAGAUCGGACGUUCGACUCGCCCCCGGGAGAUUUUUUCCUCGAGCAA [G59C G67A],≤ 0.026
2,CUCUCGGUAGCCAAGUUGGUUUAAGGCGCAAGACUUUAAUUUAUCACUACGAAAUCUUCAGAUCGGUCGUUCGACUCGCCCCCGGGAGAUUUUUUCCUCGAGCAA [G59C G67U],≤ 0.026
3,CUCUCGGUAGCCAAGUUGGUUUAAGGCGCAAGACUUUAAUUUAUCACUACGAAAUCUUCAGAUCGGCCGUUCGACUCGCCCCCGGGAGAUUUUUUCCUCGAGCAA [G59C G67C],≤ 0.026
4,CUCUCGGUAGCCAAGUUGGUUUAAGGCGCAAGACUUUAAUUUAUCACUACGAAAUCUUUACAUCGGGCGUUCGACUCGUCCCCGGGAGAUUUUUUCCUCGAGCAA [G59U G61C C79U],≤ 0.026
5,CUCUCGGUAGCCAAGUUGGUUUAAGGCGCAAGACUUUAAUUUAUCACUACGAAAUCUUUAGAUCUGGCGUUCGACUCGCCCCCGGGCGAUUUUUUCCUCGAGCAA [G59U G65U A87C],≤ 0.026
6,CUCUCGGUAGCCAAGUUGGUUUAAGGCGCAAGACUUUAAUUUAUCACUACGAAAUCUUCAGAUCGGGCGUUCGAGUCGCCCCCGGGAGAUUUUUUCCUCGAGCAA [G59C C75G],≤ 0.026
7,CUCUCGGUAGCCAAGUUGGUUUAAGGCGCAAGACUUUAAUUUAUCACUACGAAAUCUUCAGAUCGGGCGUUCGACUCGCCCGCGGGAGAUUUUUUCCUCGAGCAA [G59C C82G],≤ 0.026
8,CUCUCGGUAGCCAAGUUGGUUUAAGGCGCAAGACUUUAAUUUAUCACUACGAAAUCUUUCGAUCGGGCGUUCGACUCGCCCCCGGGAGAUUUUUUCCUCGAGCAA [G59U A60C],≤ 0.026
9,CUCUCGGUAGCCAAGUUGGUUUAAGGCGCAAGACUUUAAUUUAUCACUACGAAAUCUUUAGAUCGGGCGUUCGACUCGCCGACGGGAGAUUUUUUCCUCGAGCAA [G59U C81G C82A],≤ 0.026
10,CUCUCGGUAGCCAAGUUGGUUUAAGGCGCAAGACUUUAAUUUAUCACUACGAAAUCUUUAGAUCGGGCGUUCGACUCGCCCCCGGUAGAUUUUUUCCUCGAGCAA [G59U G86U],≤ 0.026
11,CUCUCGGUAGCCAAGUUGGUUUAAGGCGCAAGACUUUAAUUUAUCACUACGAAAUCUUUAGAUCGGGCGUUCGACUCGCCCCCGGAAGAUUUUUUCCUCGAGCAA [G59U G86A],≤ 0.026
12,CUCUCGGUAGCCAAGUUGGUUUAAGGCGCAAGACUUUAAUUUAUCACUACGAAAUCUUUAGAUCGGGCGUUCGAAUCCCCCCCCGCAGAUUUUUUCCUCGAGCAA [G59U C75A G78C G84C G86C],≤ 0.026
13,CUCUCGGUAGCCAAGUUGGUUUAAGGCGCAAGACUUUAAUUUAUCACUACGAAAUCUUCAGAUCGGGCGUUCGACUUGCCCCCGGGAGAUUUUUUCCUCGAGCAA [G59C C77U],≤ 0.026
14,CUCUCGGUAGCCAAGUUGGUUUAAGGCGCAAGACUUUAAUUUAUCACUACGAAAUCUUGCGAUCGGGCGUUCGACUCGCCCCCGGGUAAUUUUUUCCUCGAGCAA [A60C A87U G88A],≤ 0.026
15,CUCUCGGUAGCCAAGUUGGUUUAAGGCGCAAGACUUUAAUUUAUCACUACGAAAUCUUGCGAUGGGGCGUUCGACUCGACCCCGGGAGAUUUUUUCCUCGAGCAA [A60C C64G C79A],≤ 0.026
16,CUCUCGGUAGCCAAGUUGGUUUAAGGCGCAAGACUUUAAUUUAUCACUACGAAAUCUUUAGAUCCGGCGUGCGACUGGCCCCCGGGAGAUUUUUUCCUCGAGCAA [G59U G65C U71G C77G],≤ 0.026
17,CUCUCGGUAGCCAAGUUGGUUUAAGGCGCAAGACUUUAAUUUAUCACUACGAAAUCUUCAGAACGGGCGUUCGACUCGACCCCGGGGGAUUUUUUCCUCGAGCAA [G59C U63A C79A A87G],≤ 0.026
18,CUCUCGGUAGCCAAGUUGGUUUAAGGCGCAAGACUUUAAUUUAUCACUACGAAAUCUUCAGAUCGUGCGUUCGACUCGCCCCAGGGCGAUUUUUUCCUCGAGCAA [G59C G66U C83A A87C],≤ 0.026
19,CUCUCGGUAGCCAAGUUGGUUUAAGGCGCAAGACUUUAAUUUAUCACUACGAAAUCUUUAGAAAGGGCGUUCGACUCGCCCCCGGGAGAUUUUUUCCUCGAGCAA [G59U U63A C64A],≤ 0.026
20,CUCUCGGUAGCCAAGUUGGUUUAAGGCGCAAGACUUUAAUUUAUCACUACGAAAUCUUUAGAUCGGCCGUUCGACUCGCCCCCGGGAGAUUUUUUCCUCGAGCAA [G59U G67C],≤ 0.026
21,CUCUCGGUAGCCAAGUUGGUUUAAGGCGCAAGACUUUAAUUUAUCACUACGAAAUCUUGCGCUCGGGCGUUCGACUCGCCCCCGGGAGAUUUUUUCCUCGAGCAA [A60C A62C],≤ 0.026
22,CUCUCGGUAGCCAAGUUGGUUUAAGGCGCAAGACUUUAAUUUAUCACUACGAAAUCUUCAGUUCGGGCGUUCGACUCGCCCCCGGGAGAUUUUUUCCUCGAGCAA [G59C A62U],≤ 0.026
23,CUCUCGGUAGCCAAGUUGGUUUAAGGCGCAAGACUUUAAUUUAUCACUACGAAAUCUUUAGAUCGGGCGUUAGACUCGCCCCCGGGGGAUUUUUUCCUCGAGCAA [G59U C72A A87G],≤ 0.026
24,CUCUCGGUAGCCAAGUUGGUUUAAGGCGCAAGACUUUAAUUUAUCACUACGAAAUCUUUAGAUCGGGCGUUCGCCUCGCCCUCGGGAGAUUUUUUCCUCGAGCAA [G59U A74C C82U],≤ 0.026
25,CUCUCGGUAGCCAAGUUGGUUUAAGGCGCAAGACUUUAAUUUAUCACUACGAAAUCUUUAGAUCGGGCGCUAGACUCGCCCCCGGGAGAUUUUUUCCUCGAGCAA [G59U U70C C72A],≤ 0.026
26,CUCUCGGUAGCCAAGUUGGUUUAAGGCGCAAGACUUUAAUUUAUCACUACGAAAUCUUUAGAUCGGGCGUUCGACUCGCCCCCGGGAGAUUUUUUCCUCGAGCAA [G59U],0.116
27,CUCUCGGUAGCCAAGUUGGUUUAAGGCGCAAGACUUUAAUUUAUCACUACGAAAUCUUCAGAUCGGGCGUUCGACUCGCCCCCGGGGGAUUUUUUCCUCGAGCAA [G59C A87G],≤ 0.026

# Reference: the RNAGym collection of RNA variant scans (doi:10.1101/gad.245936.114)
